Drawing on PMC4739766 (eLife, 2015), this text covers binding for 8 molecules.

Protein sequences, listed by entry. Tags and fused reporters are not part of them. Lines headed by an entry give the natural chain unless they say otherwise; changes in a name come on top. Chains listed by the source or under a name are the forms on record and can include a tag or linker. Residues count along the entry.
UniProt P08138: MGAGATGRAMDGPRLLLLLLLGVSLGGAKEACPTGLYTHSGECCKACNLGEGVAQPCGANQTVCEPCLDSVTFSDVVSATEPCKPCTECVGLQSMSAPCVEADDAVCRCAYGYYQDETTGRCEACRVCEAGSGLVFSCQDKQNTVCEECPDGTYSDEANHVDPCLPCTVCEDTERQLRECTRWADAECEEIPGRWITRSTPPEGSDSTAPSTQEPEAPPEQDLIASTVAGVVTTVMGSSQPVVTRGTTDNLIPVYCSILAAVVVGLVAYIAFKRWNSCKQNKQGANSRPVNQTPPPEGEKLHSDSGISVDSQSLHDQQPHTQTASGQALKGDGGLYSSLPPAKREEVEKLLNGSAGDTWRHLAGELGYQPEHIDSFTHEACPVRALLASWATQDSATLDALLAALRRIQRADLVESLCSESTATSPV
full-length human p75^NTR, wild type: residues 29-427 of P08138
full length wild type rat p75^NTR tagged at the C terminus with EGFP(A206K) (P07174, residues 30-425): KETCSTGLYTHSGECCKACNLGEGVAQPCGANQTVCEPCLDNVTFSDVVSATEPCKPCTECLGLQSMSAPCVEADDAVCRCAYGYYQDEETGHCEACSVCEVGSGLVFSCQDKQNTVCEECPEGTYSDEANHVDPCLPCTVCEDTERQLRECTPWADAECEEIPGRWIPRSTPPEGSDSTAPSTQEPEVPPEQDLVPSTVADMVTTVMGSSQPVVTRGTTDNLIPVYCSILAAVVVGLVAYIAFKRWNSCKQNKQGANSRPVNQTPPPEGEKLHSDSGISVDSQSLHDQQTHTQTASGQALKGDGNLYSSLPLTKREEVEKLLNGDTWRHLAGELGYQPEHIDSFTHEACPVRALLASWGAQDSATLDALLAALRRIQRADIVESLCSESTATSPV
full length rat p75^NTR CARD binding site (CBS) mutant D355A/H359A/E363A tagged at the C terminus with EGFP(A206K) (P07174, form named): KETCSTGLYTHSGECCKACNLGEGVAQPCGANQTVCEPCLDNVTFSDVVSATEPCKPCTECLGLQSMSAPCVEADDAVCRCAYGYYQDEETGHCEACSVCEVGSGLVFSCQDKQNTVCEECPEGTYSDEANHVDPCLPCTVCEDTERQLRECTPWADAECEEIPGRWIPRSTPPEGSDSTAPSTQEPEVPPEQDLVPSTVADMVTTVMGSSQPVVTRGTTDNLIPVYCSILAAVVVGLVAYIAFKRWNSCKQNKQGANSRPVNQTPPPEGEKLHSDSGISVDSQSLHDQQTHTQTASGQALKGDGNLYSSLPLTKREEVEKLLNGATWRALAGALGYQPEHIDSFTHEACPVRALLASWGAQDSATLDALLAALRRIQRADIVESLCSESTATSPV
UniProt P61586, residues 2-190: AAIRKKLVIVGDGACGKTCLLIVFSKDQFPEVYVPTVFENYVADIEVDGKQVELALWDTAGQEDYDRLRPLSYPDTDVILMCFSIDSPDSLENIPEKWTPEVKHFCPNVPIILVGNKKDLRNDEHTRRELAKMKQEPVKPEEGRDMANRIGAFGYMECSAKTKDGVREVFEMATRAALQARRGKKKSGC
UniProt O43353: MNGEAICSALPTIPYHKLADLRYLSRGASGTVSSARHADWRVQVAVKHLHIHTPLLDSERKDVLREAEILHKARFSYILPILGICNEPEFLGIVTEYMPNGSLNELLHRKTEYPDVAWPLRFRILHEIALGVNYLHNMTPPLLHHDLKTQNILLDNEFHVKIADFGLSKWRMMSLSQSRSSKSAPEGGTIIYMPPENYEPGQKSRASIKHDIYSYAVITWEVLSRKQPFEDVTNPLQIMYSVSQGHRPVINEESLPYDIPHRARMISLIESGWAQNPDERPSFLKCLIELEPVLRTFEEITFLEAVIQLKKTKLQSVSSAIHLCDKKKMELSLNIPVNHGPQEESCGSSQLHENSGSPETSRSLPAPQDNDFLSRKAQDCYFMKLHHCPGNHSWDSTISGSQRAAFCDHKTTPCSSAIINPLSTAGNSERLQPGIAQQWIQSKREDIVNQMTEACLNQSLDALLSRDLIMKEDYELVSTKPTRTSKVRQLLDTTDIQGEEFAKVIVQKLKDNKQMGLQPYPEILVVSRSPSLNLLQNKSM

The target of test [1] is full-length human p75^NTR, wild type (human) (UniProt P08138). Nature of the test: co-IP; transfected HEK293 cells; lysate immunoprecipitated with anti-p75 antibody (ANT-007) on Protein G-Sepharose, 16 hr at 4°C; washes with 1% Triton X-100, 0.2 M NaCl; Western blot. Background: Immunoblotting shows a protein as a band on a membrane.
Test [2] concerns the target full length rat p75^NTR CARD binding site (CBS) mutant D355A/H359A/E363A tagged at the C terminus with EGFP(A206K) (rat) (UniProt P07174). Nature of the test: FRET or BRET; homo-FRET anisotropy microscopy of EGFP-tagged full-length rat p75NTR in transfected COS-7 cells, before and for 15 min after NGF (100 ng/ml) or vehicle. (BRET reads energy transfer from a luciferase to a nearby fluorophore.)

Test [3] concerns the target full length wild type rat p75^NTR tagged at the C terminus with EGFP(A206K) (rat) (UniProt P07174). The description is as above.
The target of test [4] is human p75^NTR death domain (330–427) (human) (UniProt P08138). Put plainly: NMR [1H-15N] HSQC spectra; p75NTR DD alone in phosphate buffer, pH 6.9, 28°C; both purified.
Test [5] shares this target. Nature of the test: condition: only in TRIS or HEPES buffer at pH 6.0–7.0; NMR [1H-15N] HSQC spectra; p75NTR DD alone in TRIS or HEPES buffer at pH 6.0–7.0; both purified.
Test [6] has the same target. Put plainly: NMR solution structure; 1 mM 13C,15N-labelled p75NTR DD mixed with 1 mM unlabelled p75NTR DD; 50 mM phosphate buffer, 10 mM DTT, 1 mM EDTA, pH 6.9, 28°C; both purified.
Test [7] deals with human RhoA (2–190), unprenylated RhoA:GDP:Mg2+ (human) (UniProt P61586). Put plainly: SPR; unprenylated RhoA:GDP:Mg2+ immobilised by amine coupling on CM5 chip; BIAcore T200, 22°C; 10 mM HEPES, 50 mM NaCl, 0.005% Surfactant P20, pH 7.0 (1 mM MgCl2 and 100 µM GDP for RhoGDI); steady-state analysis, one binding site model; both purified.
For test [8], the target named is full-length human p75^NTR, wild type (human) (UniProt P08138). Put plainly: co-IP; transfected HEK293 cells; lysate immunoprecipitated with anti-p75 antibody (ANT-007) on Protein G-Sepharose, 16 hr at 4°C; washes with 1% Triton X-100, 0.2 M NaCl; Western blot. The source holds these as a separate data set.
In test [9] the target is human p75^NTR death domain (330–427) (human) (UniProt P08138). Nature of the test: NMR titration; [1H-15N] HSQC spectra of p75NTR DD in the presence of RhoGDI or RhoGDI ΔN, molar ratio 1:4, pH 6.9, 28°C; both purified.
The target is the same in test [10]. Put plainly: NMR titration; [1H-15N] HSQC spectra of 15N-RhoGDI in complex with p75NTR DD in the presence of 250 mM NaCl; 20 mM HEPES, pH 6.9, 28°C; both purified.
Test [11] shares this target. Put plainly: NMR solution structure; 0.5 mM 13C,15N-labelled partner mixed with 2 mM unlabelled partner; 10 mM HEPES, 10 mM DTT, 1 mM EDTA, pH 6.9, 28°C; both purified.

Residue numbers refer to the chain shown, from its start. Where two headings read alike, the source gives them in different places. No constants are given. Whether binding was seen depends on the method and setting. For some of these results: Binding seen in cells or lysates may run through a third protein. Some binding calls cover weakened binding; strength is not graded here. For some of these results: Where a sequence is shown, tags or fusion partners need not be part of it.

For the molecule “Flag-tagged full-length human RIP2, wild type (from UniProt O43353 1-540) (enzyme)”, in [1], the binding entry is listed as “binds”. Regarding “full length rat p75^NTR CARD binding site (CBS) mutant D355A/H359A/E363A tagged at the C terminus with EGFP(A206K) (from UniProt P07174 30-425) (receptor)”, in test [2], the binding result is listed as “binds”. As for “full length wild type rat p75^NTR tagged at the C terminus with EGFP(A206K) (from UniProt P07174 30-425) (receptor)”, the binding entry in test [3] was “binds”. In the case of “human p75^NTR death domain (330–427) (from UniProt P08138 330-427) (domain or fragment)”, the binding result is “binds weakly” in [4], “no binding” in test [5], “binds weakly” in [6] and “no binding (tested: 125–500 nM)” in test [7].

B1: Myc-tagged full-length human RhoGDI, wild type (protein, UniProt P52565 1-204)
chain: MAEQEPTAEQLAQIAAENEEDEHSVNYKPPAQKSIQEIQELDKDDESLRKYKEALLGRVAVSADPNVPNVVVTGLTLVCSSAPGPLELDLTGDLESFKKQSFVLKEGVEYRIKISFRVNREIVSGMKYIQHTYRKGVKIDKTDYMVGSYGPRAEEYEFLTPVEEAPKGMLARGSYSIKSRFTDDDKTDHLSWEWNLTIKKDWKD
In the case of B1, the binding result in test [8] is “binds”.

B2: Myc-tagged full-length human RhoGDI, Lys99 substituted by alanine (protein, UniProt P52565 1-204)
chain: B1 chain with K99A
In the case of B2, the binding result in [8] is “no binding”.

B3: Myc-tagged full-length human RhoGDI, Lys199 substituted by alanine (protein, UniProt P52565 1-204)
chain: B1 chain with K199A
In the case of B3, the binding entry in test [8] is “no binding”.

B4: human RhoGDI (2–204) (protein, UniProt P52565 2-204)
chain: AEQEPTAEQLAQIAAENEEDEHSVNYKPPAQKSIQEIQELDKDDESLRKYKEALLGRVAVSADPNVPNVVVTGLTLVCSSAPGPLELDLTGDLESFKKQSFVLKEGVEYRIKISFRVNREIVSGMKYIQHTYRKGVKIDKTDYMVGSYGPRAEEYEFLTPVEEAPKGMLARGSYSIKSRFTDDDKTDHLSWEWNLTIKKDWKD
Turning to B4, the binding result in test [9], in [10] and in test [11] was “binds weakly” throughout.
